# Reference: PubChem BioAssay (NCI)
#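 Values below derive from 48-hour exposures of cells grown in 96-well plates, with endpoints linearly interpolated between the two concentrations bracketing the appropriate inhibition level. The concentration for 50% growth inhibition is given as GI50. TGI: concentration producing complete growth inhibition.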
# Tested on: NCI-H322M lung
# Experiment: growth of human tumour cells (NCI), 48 h
SMILES,GI50 [µM],TGI [µM]
COc1cccc(NC(=O)c2ccc(NC(=O)CCl)s2)c1,> 100,> 100
Clc1cccc(-c2ccc(OCCCN3CCN(c4ccncc4)CC3)cc2)c1,2.13,5.89
COC(=O)C[C@](O)(CCC(C)C)C(=O)O[C@@H]1C(OC)=C[C@]23CCCN2CCc2cc4c(cc2[C@H]13)OCO4,0.278,1.24
C/C(=N/O)c1ccc(NC(=O)CSc2nnc(-c3ccc4nc(-c5ccc(Cl)cc5)[nH]c4c3)o2)cc1,12.7,25.8
